We go through 14 molecules from publication PMC12136788.

This is one part of the list.

T1: UNK ZnF1-3 (human, UniProt Q9C0B0 31-174)
T1 sequence: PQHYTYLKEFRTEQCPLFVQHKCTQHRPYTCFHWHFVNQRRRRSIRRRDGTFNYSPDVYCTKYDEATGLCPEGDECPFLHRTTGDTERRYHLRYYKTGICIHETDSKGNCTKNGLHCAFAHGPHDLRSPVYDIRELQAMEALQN

B1: chr13:100192284:100192285:-_ENSMUSG00000052727_ENSMUST00000064762|mus_hu|motif|central (ssRNA)
RNA: GGGAGUUCUACAGUCCGACGAUCGUAAGAUUUCCAUUAGCAAAUGAUUAAAUCUUAAUUAAAUGAGUAUUGGAAAGCUCCGGGACUGCAUAAGCUAUUGGAGACACUUAAAACAUUCAUAUACACUGGGGAAACCAUUCACUACAACAGAGGAUUGAGCAUCA
B2: chrX:20185780:20185781:-_ENSG00000177189_ENST00000379565|hu_mus|FALSE|FALSE (ssRNA)
RNA: GGGAGUUCUACAGUCCGACGAUCUUUGGUUAUAGUAAACAGGACAGCGCUGGCCUCUCGCUCUGAGAAAAACUUCUGUCUAAGAAUCUUAUCCAGCAAUUCACCUCCUUUCAUAAGUUCUGUUACUACAUACACAUAUUUUCCCAACAGAGGAUUGAGCAUCA
B3: chr8:127356239:127356240:+_ENSMUSG00000036913_ENSMUST00000167588|mus_mus|FALSE|FALSE (ssRNA)
RNA: GGGAGUUCUACAGUCCGACGAUCCACCCUGCUAUCAGCAUAUUGCUCCCUGGCUCUGGAUUCCUUCAGGCCACAGGGCAGCUAAGGACAUUUUGGAACCACAUAAAGAUCUGAAGGUACAGCCUGGACCACACACGGUGUGAGCAACAGAGGAUUGAGCAUCA
B4: chr8:22473583:22473584:+_ENSG00000158941_ENST00000389279|hu_hu|motif|central (ssRNA)
RNA: GGGAGUUCUACAGUCCGACGAUCAGGUUCAGGUGGGGACACGACCUUUUCAGGAAGGCUCAGUAGCAUCUUAUAAACUCGGUAGCCAAAAUCCCUCUGGAGCAUCUCCAGAAACAGCUCGGCCAGCACCAUCACCUCAAAAGACAACAGAGGAUUGAGCAUCA
B5: chr15:79186471:79186472:+_ENSG00000185787_ENST00000426013|hu_hu|FALSE|FALSE (ssRNA)
RNA: GGGAGUUCUACAGUCCGACGAUCGGGUGCAUCGGGAUGAUCUGCAAGAAUUUCAGCAUACUGUGGUCUCUCAAAUUUAUAGAGUAGCUGGGUACCCAACAUUACGUUGAAGUAUUCUUUUAUCCCUGCCACAACUUCAUUAACCAACAGAGGAUUGAGCAUCA
B6: chr8:81716360:81716361:+_ENSMUSG00000071064_ENSMUST00000098614|mus_hu|motif|central (ssRNA)
RNA: GGGAGUUCUACAGUCCGACGAUCCAAGUAGGCUCCCCAUCCAUGGCGGGAUGACUGGCAAAGGGAGGUGUAGCACACCGGCGGGGUGUGGGGAAGAGGGGCUGGCGUGGAGGGGACUGAGGAGACCAUGGUGUGGACAGACAGCAACAGAGGAUUGAGCAUCA
B7: chr2:48026839:48026840:+_ENSG00000116062_ENST00000540021|hu_hu|hu_hu_hu_mus_False|58_78 (ssRNA)
RNA: GGGAGUUCUACAGUCCGACGAUCAUAGUGAGCCACUAGCGUCCUAAAUCUGGAACAAUGGCGAUCAUCCGAAAACUGACCUAUGAAAAACUUGCCCAGUGAAGUGUCCACAAAGCAAACACCAUACACACGAGUGUGACCAGACAACAGAGGAUUGAGCAUCA
B8: 139285311_139288915_2321_CDS_ENSG00000064393_ENST00000406875|human|control|control (ssRNA)
RNA: GGGAGUUCUACAGUCCGACGAUCAUUAUAAUGGCUUCCGUGAGCAUGCGUAUUUCUCCAGUCCGCCAGCUGCUGGGUGCCUGCCAUGGUCUCGGGAAUCACGGUGGCAUGCUGCACUGAUGUGUGGGUGGCCACUCCAGUCAGCAACAGAGGAUUGAGCAUCA
B9: 19986169_19991572_1668_CDS_ENSMUSG00000002428_ENSMUST00000002502|mouse|control|control (ssRNA)
RNA: GGGAGUUCUACAGUCCGACGAUCUUUUGAAAGCCAGGCUGAAUCUCUAAUACGAUCAGGACCAUAAUAAACAUAAAAAUUCAAGUGCACUUCUGAUUUUACAUGUUGUCCAAACUGGUCAAUCCAGUUGCUGAGCACAGAGAGCAACAGAGGAUUGAGCAUCA
B10: chr20:16721599:16721600:+_ENSG00000125870_ENST00000246071|hu_mus|FALSE|FALSE (ssRNA)
RNA: GGGAGUUCUACAGUCCGACGAUCCACAUGUUACUUCUUGGCAUAGGUGAUCUUCAUGGCAUGGGACGGUGUAAUCUUAAACCCCUGCAGAGCAUCUCUGGCAGCUCCAGCCUGACCAUCAUUCUCAAAUUCUACAAAUGCAAUCAACAGAGGAUUGAGCAUCA
B11: chr2:73479818:73479819:+_ENSG00000135624_ENST00000258091|hu_mus|FALSE|FALSE (ssRNA)
RNA: GGGAGUUCUACAGUCCGACGAUCAGCUGCUGUCAGAGCGUUGAUGCGCACCAUGGCUGGCUCCCACACAAAUGCCUGGAAGUUGUCGGCGAUGUUCUCAUUGUUGAUGUCCACCCCAUACCACAUACCUCCCUGUGCGUGUCGCAACAGAGGAUUGAGCAUCA
B12: chr19:37063429:37063430:+_ENSMUSG00000040565_ENSMUST00000099494|mus_mus|motif|central (ssRNA)
RNA: GGGAGUUCUACAGUCCGACGAUCCAUAGCAUCCCAAAGAUGUGGCAACUUCACUGCCAUUUCAGCACCAAAAUGCUUCACGGUAGUUGUUAAGGCAAAUUCAGCUCCUCUCCGCUGUACCAGGUAAGGCUUCUGACCCUCAUCCAACAGAGGAUUGAGCAUCA
B13: chr19:16212804:16212805:+_ENSG00000167460_ENST00000300933|hu_mus|hu_hu_hu_mus_False|1_68 (ssRNA)
RNA: GGGAGUUCUACAGUCCGACGAUCAACAAUUCUGGAGUGAAGGAAAGAUGUAACAUGGAACAGCAUUCCAUCUAUUACAGAAGGCACAUGGGCAACAAUGAUCACCCCAGCAUUCUCGCUUGGAAUGCUUAAAGACAGAUGUUUCAACAGAGGAUUGAGCAUCA
B14: chr7:75932113:75932114:+_ENSG00000106211_ENST00000248553|hu_hu|hu_hu_hu_mus_False|88_88 (ssRNA)
RNA: GGGAGUUCUACAGUCCGACGAUCCUGCGACCACUCAUCGGGCAACCGGGGCAGCCCGAAAGCUUGAUCGAAGAGGCGGCUGUGUGCAGGGUACCAGUCCCGGAAUGGUUCCCAGCUCGGGCUCCGCAGCAGCGAGAAGGGCACCAACAGAGGAUUGAGCAUCA

In this assay the target is T1, UNK ZnF1-3. Description: nsRBNS (natural sequence RNA bind-n-seq); RBNS binding buffer (assumed for nsRBNS): 25 mM Tris pH 7.5, 150 mM KCl, 3 mM MgCl2, 0.01% Triton X-100, 500 ug/ml BSA, 20 U/ml SUPERase-In, 4 C; UNK is unkempt and MSI1 is Musashi-1; names of the RNAs are library labels; protein concentration not given here; high values mean tight binding.
In turn, B1 displayed a binding signal of 1.47 enrichment R. Turning to B2, the binding signal was found to be 0.941 enrichment R. The result for B3 reads 0.941 enrichment R.

B4 gave a binding signal of 0.822 enrichment R. On to B5, for which the binding signal is 1.19 enrichment R. With B6, the binding signal is 2.15 enrichment R. Molecule B7 gave a binding signal of 1.35 enrichment R.

B8: the binding signal came out at 0.48 enrichment R. The result for B9 reads 1.67 enrichment R; that for B10, 1.41 enrichment R. Then B11, with 1.14 enrichment R; and B12, with 0.821 enrichment R. In turn, B13 displayed a binding signal of 1.04 enrichment R. Take B14: the binding signal is 1.35 enrichment R.
